IC50 is the fitted dose that halves viability relative to control wells, and lower means more sensitive; where the fit passes the top or lowest dose, that dose stands as a limit. AUC is the area under the same curve over the 256-fold range up to the top dose, as a fraction: 1 means no effect, lower means more sensitive. Any top dose called inferred was derived from the fitted curves, not read from the paper. Where only a bound is given, the exact number is not on record here.

Compound in this assay: CCOc1cc2ncc(C#N)c(Nc3ccc(F)c(Cl)c3)c2cc1NC(=O)/C=C/CN(C)C [EKB-569]
Kind of assay: Viability of human cancer cell lines after 72 h of drug (GDSC screen). Conditions: top dose inferred. The protocol: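 Human cancer cell lines in 384-well plates, medium with 10% serum, drug for 72 h over a 256-fold dose range (nine 2-fold or five 4-fold steps up to the top dose). Adherent lines were fixed and stained with the nucleic acid dye Syto60, suspension lines read with resazurin; signal relative to control wells, capped at 0 and 100%. One two-parameter sigmoid per drug and line, fitted in a mixed model over all curves with the slope shared within a line.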
Turning to “RT-112 (bladder, adherent, top dose 2.5 µM)”, the AUC was determined as 0.984 and the IC50 was more than 2500 nM.

As for “MOG-G-UVW (glioma, adherent, top dose 2.5 µM)”, the AUC turned out to be 0.97 and the IC50 was more than 2500 nM.

With “NCI-H2110 (non-small cell lung carcinoma, adherent, top dose 2.5 µM)”, the AUC was found to be 0.887 and the IC50 was more than 2500 nM.

For the cell line “HCT-15 (large intestine, adherent, top dose 2.5 µM)”, the AUC stood at 0.883 and the 50% inhibitory concentration (IC50) was more than 2500 nM.

Turning to “MOLT-13 (T-cell lymphoblastic leukaemia, suspension, top dose 2.5 µM)”, the AUC amounted to 0.619 and the IC50 was found to be 317 nM.

On to “SNU-398 (liver, adherent, top dose 2.5 µM)”, for which the AUC amounted to 0.966 and the IC50 is more than 2500 nM.

“NCI-H841 (small cell lung carcinoma, adherent, top dose 2.5 µM)”: the AUC was 0.956 and the half-inhibitory concentration (IC50) was more than 2500 nM.

“G-361 (melanoma, adherent, top dose 2.5 µM)”: the AUC was 0.896 and the IC50 is more than 2500 nM.

Consider “HCC1500 (breast, adherent, top dose 2.5 µM)”, for which the AUC is 0.926 and the IC50 was more than 2500 nM.

On to “PCI-6A (head and neck, adherent, top dose 2.5 µM)”, for which the AUC came to 0.805 and the IC50 came to 1230 nM.

For “NCI-SNU-5 (stomach, suspension, top dose 2.5 µM)”, the AUC is 0.989 and the IC50 was more than 2500 nM.

On to “NCI-H838 (lung adenocarcinoma, adherent, top dose 2.5 µM)”, for which the AUC stood at 0.986 and the IC50 was more than 2500 nM.

For “LS-513 (large intestine, adherent, top dose 20 µM)”, the AUC was found to be 0.496 and the IC50 is 1220 nM.

Regarding “GDM-1 (acute myeloid leukaemia, suspension, top dose 2.5 µM)”, the AUC came to 0.458 and the IC50 worked out at 120 nM.

“JM1 (B-cell lymphoma, suspension, top dose 2.5 µM)”: the AUC was 0.902 and the IC50 was 2450 nM.

As for “KURAMOCHI (ovary, adherent, top dose 2.5 µM)”, the AUC was determined as 0.923 and the IC50 is more than 2500 nM.

“MPP-89 (mesothelioma, adherent, top dose 2.5 µM)”: the AUC is 0.968 and the IC50 was more than 2500 nM.

For “A3-KAW (B-cell lymphoma, suspension, top dose 2.5 µM)”, the AUC is 0.42 and the IC50 stood at 98.9 nM.

As for “LU-134-A (small cell lung carcinoma, suspension, top dose 2.5 µM)”, the AUC turned out to be 0.968 and the IC50 was more than 2500 nM.

Take “OSC-20 (head and neck, adherent, top dose 2.5 µM)”: the AUC was determined as 0.861 and the IC50 was more than 2500 nM.

For the cell line “SK-MG-1 (glioma, adherent, top dose 2.5 µM)”, the AUC is 0.987 and the IC50 was more than 2500 nM.

As to “JHOS-2 (ovary, adherent, top dose 2.5 µM)”, the AUC was determined as 0.928 and the IC50 is more than 2500 nM.

On to “TALL-1 (T-cell lymphoblastic leukaemia, suspension, top dose 2.5 µM)”, for which the AUC worked out at 0.979 and the IC50 is more than 2500 nM.

As to “LS-1034 (large intestine, adherent, top dose 2.5 µM)”, the AUC amounted to 0.936 and the IC50 is more than 2500 nM.

As to “SCC-15 (head and neck, adherent, top dose 2.5 µM)”, the AUC was found to be 0.723 and the half-maximal inhibitory concentration (IC50) is 852 nM.

For “Hs746T (stomach, adherent, top dose 2.5 µM)”, the AUC came to 0.773 and the 50% inhibitory concentration (IC50) is 1330 nM.

With “BV-173 (chronic myeloid leukaemia, suspension, top dose 2.5 µM)”, the AUC stood at 0.791 and the IC50 was found to be 982 nM.

Regarding “SW872 (soft tissue, adherent, top dose 2.5 µM)”, the AUC came out at 0.978 and the IC50 was more than 2500 nM.

With “NCI-H1436 (small cell lung carcinoma, suspension, top dose 2.5 µM)”, the AUC was determined as 0.976 and the IC50 is more than 2500 nM.

Regarding “LC4-1 (lymphoblastic leukaemia, suspension, top dose 2.5 µM)”, the AUC came out at 0.775 and the half-inhibitory concentration (IC50) is 1090 nM.

Take “RO82-W-1 (thyroid, adherent, top dose 2.5 µM)”: the AUC stood at 0.982 and the IC50 was more than 2500 nM.

In the case of “ML-2 (acute myeloid leukaemia, suspension, top dose 2.5 µM)”, the AUC was 0.885 and the IC50 was 2220 nM.

For the cell line “NB17 (neuroblastoma, adherent, top dose 2.5 µM)”, the AUC amounted to 0.934 and the half-maximal inhibitory concentration (IC50) was more than 2500 nM.

In the case of “CHL-1 (melanoma, adherent, top dose 2.5 µM)”, the AUC worked out at 0.557 and the IC50 is 222 nM.

“KYSE-450 (oesophagus, adherent, top dose 2.5 µM)”: the AUC was 0.114 and the half-maximal inhibitory concentration (IC50) was determined as 9.81 nM.

In the case of “PA-TU-8988T (pancreas, adherent, top dose 2.5 µM)”, the AUC is 0.95 and the IC50 was more than 2500 nM.

Regarding “TE-1 (oesophagus, adherent, top dose 2.5 µM)”, the AUC was found to be 0.892 and the IC50 was more than 2500 nM.

On to “TE-5 (oesophagus, adherent, top dose 2.5 µM)”, for which the AUC turned out to be 0.913 and the IC50 was more than 2500 nM.

For “OCI-M1 (acute myeloid leukaemia, suspension, top dose 2.5 µM)”, the AUC is 0.837 and the IC50 is 1140 nM.

Take “C2BBe1 (large intestine, adherent, top dose 2.5 µM)”: the AUC was 0.776 and the IC50 came to 1140 nM.

“CAL-39 (cervix, adherent, top dose 2.5 µM)”: the AUC worked out at 0.949 and the IC50 was more than 2500 nM.

In the case of “LoVo (large intestine, adherent, top dose 2.5 µM)”, the AUC stood at 0.935 and the half-maximal inhibitory concentration (IC50) was more than 2500 nM.

As to “NCI-H1734 (lung adenocarcinoma, adherent, top dose 20 µM)”, the AUC was 0.791 and the IC50 worked out at 9970 nM.

For the cell line “NCI-H2052 (mesothelioma, adherent, top dose 2.5 µM)”, the AUC is 0.957 and the IC50 is more than 2500 nM.

As for “DK-MG (glioma, adherent, top dose 2.5 µM)”, the AUC is 0.669 and the IC50 is 584 nM.

With “L-363 (myeloma, suspension, top dose 2.5 µM)”, the AUC amounted to 0.952 and the IC50 is more than 2500 nM.

Regarding “Detroit562 (head and neck, adherent, top dose 2.5 µM)”, the AUC was 0.961 and the IC50 was more than 2500 nM.

Take “MS-1 (small cell lung carcinoma, suspension, top dose 2.5 µM)”: the AUC is 0.913 and the IC50 is more than 2500 nM.

Usually IC50 stands for the concentration that gives 50% inhibition.

Source of the values: the supplement of paper PMC4967469.
